Assay results published in the supplement of paper PMC7826260.
The other results are listed elsewhere or left out. Cleavage of a single-stranded DNA pool by Rep nickase domains was read by sequencing (1 h at 37 °C, 3 µM enzyme); the outer parts of the 90-letter strands are left off. Values are log2 of uncut reads against the no-enzyme pool; uncut sequences lie near 0, cut ones below; no hit call is given. Shares of all reads are compared; values above 0 arise when much of the pool is cut.

Experiments:
Assay in all cases: uncleaved DNA left, log2 of reads against the no-enzyme library (log2 ratio); higher = less cleavage (more negative = more Rep cleavage of the k-mer); sequences stand for … in CTCGTCCG…ACCGGAGA
[1] = system: T1, Rep nickase domain of Muscovy duck circovirus
T1 sequence (Rep 1-111, printed without the tag): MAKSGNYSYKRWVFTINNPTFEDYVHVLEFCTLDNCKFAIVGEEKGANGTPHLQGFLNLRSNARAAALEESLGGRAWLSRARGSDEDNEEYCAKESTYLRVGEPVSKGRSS
Procedure: (§1)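 A pool of 90-nt single-stranded DNAs with seven random bases just before the constant AC of the nick site (name = the seven bases) was cut by 3 µM recombinant His6-SUMO-tagged Rep nickase domain (300 nM DNA, 50 mM HEPES pH 8.0, 50 mM NaCl, 1 mM MnCl2, 1 h, 37 °C, three replicates). Uncut DNA was amplified and sequenced.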

[2] = system: T2, Rep nickase domain of banana bunchy top virus
T2 sequence (Rep 1-94, printed without the tag): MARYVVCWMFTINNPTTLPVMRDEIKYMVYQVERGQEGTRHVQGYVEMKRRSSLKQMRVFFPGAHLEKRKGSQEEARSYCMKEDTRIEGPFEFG
Procedure: as §1

[3] = system: T3, Rep nickase domain of cabbage leaf curl virus
T3 sequence (Rep 1-116, printed without the tag): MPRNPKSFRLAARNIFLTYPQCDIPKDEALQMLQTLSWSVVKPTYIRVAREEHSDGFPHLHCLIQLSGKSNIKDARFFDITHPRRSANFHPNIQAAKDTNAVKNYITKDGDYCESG
Procedure: as §1

[4] = system: T4, Rep nickase domain of chickpea chlorotic dwarf virus
T4 sequence (Rep 1-124, printed without the tag): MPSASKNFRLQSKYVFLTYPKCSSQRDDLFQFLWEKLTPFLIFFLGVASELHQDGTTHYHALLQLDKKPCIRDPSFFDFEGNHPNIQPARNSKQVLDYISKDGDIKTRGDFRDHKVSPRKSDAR
Procedure: as §1

[5] = system: T5, Rep nickase domain of faba bean necrotic yellows virus
T5 sequence (Rep 1-98, printed without the tag): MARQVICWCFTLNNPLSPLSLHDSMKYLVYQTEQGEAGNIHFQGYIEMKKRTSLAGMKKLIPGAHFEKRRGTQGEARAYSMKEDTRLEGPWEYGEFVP
Procedure: as §1

[6] = system: T6, Rep nickase domain of maize striate mosaic virus
T6 sequence (Rep 1-117, printed without the tag): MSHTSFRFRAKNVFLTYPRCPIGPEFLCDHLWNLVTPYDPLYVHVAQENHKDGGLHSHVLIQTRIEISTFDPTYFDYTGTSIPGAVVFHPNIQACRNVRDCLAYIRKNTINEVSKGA
Procedure: as §1

[7] = system: T7, Rep nickase domain of porcine circovirus 2
T7 sequence (Rep 2-116, printed without the tag): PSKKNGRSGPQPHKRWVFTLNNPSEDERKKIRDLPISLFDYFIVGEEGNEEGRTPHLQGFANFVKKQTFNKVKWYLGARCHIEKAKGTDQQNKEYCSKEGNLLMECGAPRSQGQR
Procedure: as §1

[8] = system: T8, Rep nickase domain of tomato yellow leaf curl virus
T8 sequence (Rep 1-136, printed without the tag): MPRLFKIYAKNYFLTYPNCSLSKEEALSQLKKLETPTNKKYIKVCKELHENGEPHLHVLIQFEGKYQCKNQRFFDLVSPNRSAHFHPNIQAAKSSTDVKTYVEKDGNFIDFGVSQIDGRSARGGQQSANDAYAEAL
Procedure: as §1

[9] = system: T9, Rep nickase domain of wheat dwarf virus
T9 sequence (Rep 1-137, printed without the tag): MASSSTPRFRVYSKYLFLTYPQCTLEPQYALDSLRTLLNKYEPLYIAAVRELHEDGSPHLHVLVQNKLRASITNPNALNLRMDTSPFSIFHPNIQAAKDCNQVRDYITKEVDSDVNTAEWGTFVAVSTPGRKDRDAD
Procedure: as §1

Row | Sequence | uncleaved DNA left (log2) [1] | uncleaved DNA left (log2) [2] | uncleaved DNA left (log2) [3] | uncleaved DNA left (log2) [4] | uncleaved DNA left (log2) [5] | uncleaved DNA left (log2) [6] | uncleaved DNA left (log2) [7] | uncleaved DNA left (log2) [8] | uncleaved DNA left (log2) [9]
1 | TGCGTAA | -0.0278 | 0.0393 | -0.421 | -0.578 | -0.0332 | -1.03 | -0.2 | 0.0356 | -0.044
2 | TACCACC | -0.0859 | -0.1 | -0.185 | -1.6 | -0.139 | -0.54 | -0.82 | -0.0443 | -0.0559
3 | AACGCGT | 0.108 | -0.0647 | -0.956 | -0.705 | 0.064 | -0.923 | 0.0728 | 0.00722 | -0.0798
4 | CAGCGAT | 0.209 | 0.2 | 0.386 | 1.43 | 0.256 | 1.67 | 0.208 | 0.00143 | 0.0909
5 | AGAGGAT | 0.00298 | -0.0542 | 0.218 | 1.67 | 0.0219 | 1.89 | 0.176 | -0.13 | 0.0782
6 | AAGGCAG | 0.0411 | 0.175 | -0.356 | -0.067 | 0.0249 | -0.578 | 0.368 | 0.0914 | 0.104
7 | CTACCCT | -0.206 | -0.134 | -0.259 | -2.46 | -0.0557 | -0.487 | -1.18 | -0.0824 | -0.223
8 | ATTGCTT | 0.125 | 0.126 | -0.422 | -1.45 | 0.119 | -0.897 | -0.234 | 0.267 | -0.017
9 | ATCGAAC | -0.0193 | -0.0183 | -0.13 | -0.186 | -0.0737 | -0.635 | 0.0633 | -0.0409 | -0.042
10 | GGGAACT | 0.0154 | 0.0398 | 0.797 | 1.98 | -0.0496 | 2.23 | 0.181 | 0.0243 | 0.193
11 | GGTCAGC | 0.0354 | 0.152 | 0.811 | 1.98 | -0.0722 | 2.2 | 0.132 | 0.0432 | 0.199
12 | CCGGCCT | -0.0155 | 0.107 | 0.0535 | -0.674 | -0.00826 | 0.262 | -0.127 | 0.0201 | -0.311
13 | AAACTTA | -0.00127 | 0.118 | -0.152 | -2.65 | 0.116 | -0.433 | -0.141 | 0.153 | -0.0943
14 | ACACATA | -0.0126 | -0.143 | -0.333 | -1.05 | -0.0426 | -0.645 | 0.0666 | -0.166 | 0.0494
15 | CCGTTCC | -0.0782 | -0.0911 | 0.122 | 0.124 | -0.161 | 0.0204 | -0.00152 | -0.0503 | -0.116
16 | AAATAGA | 0.0936 | 0.0325 | -0.31 | -0.763 | 0.0543 | -1.04 | -0.0186 | 0.0538 | 0.0484
17 | CGGTAAG | 0.0365 | 0.121 | -0.642 | -0.207 | -0.0305 | -0.727 | 0.171 | 0.139 | 0.0668
18 | GCGTCTA | 0.0338 | -0.0447 | 0.0218 | 0.222 | 0.0716 | 0.782 | 0.0892 | 0.0566 | 0.221
19 | CGTGCTT | -0.0379 | -0.0364 | -0.0672 | -0.886 | -0.0173 | -0.15 | -0.406 | -0.131 | -0.087
20 | CGCTACT | -2.77 | -0.213 | -0.24 | -2.23 | 0.0623 | -0.0967 | -3.14 | -0.14 | -0.0848
21 | GGACGTC | 0.0844 | 0.172 | 0.857 | 1.81 | 0.0943 | 2.2 | 0.169 | 0.0352 | 0.11
22 | AATTTTA | -2.51 | -0.986 | -0.269 | -2.77 | -0.0528 | -0.656 | -2.76 | -0.111 | -0.171
23 | AGATGTT | -3.12 | -0.238 | -1.99 | -2.71 | 0.0792 | 0.0743 | -3.77 | 0.0245 | -1.96
24 | GCGATGA | 0.0414 | -0.104 | 0.0379 | 0.537 | -0.0629 | 1.19 | 0.0226 | -0.0611 | 0.042
25 | CTAGCGA | 0.0106 | 0.0437 | -0.766 | -0.459 | -0.00793 | -0.825 | 0.042 | -0.00793 | -0.129
26 | TGTTAGG | 0.0745 | 0.158 | 0.443 | 1.28 | 0.16 | 1.62 | 0.22 | 0.117 | 0.198
27 | CGGGAGA | 0.136 | 0.1 | 0.873 | 1.64 | 0.0229 | 1.79 | 0.212 | 0.0655 | 0.168
28 | ACATAAC | -0.0539 | -0.0801 | -0.623 | -1.41 | -0.000751 | -1.07 | 0.0727 | -0.14 | -0.0789
29 | GTCAATG | 0.109 | 0.124 | 0.3 | 0.732 | 0.0818 | 1.43 | 0.124 | 0.0489 | -0.01
30 | ACGTATG | 0.0516 | 0.0831 | -0.219 | -0.109 | 0.101 | -0.743 | 0.233 | 0.156 | 0.0684
